Assay results reported in PubChem BioAssay AID1645887 (National Center for Advancing Translational Sciences (NCATS), 2021).
Several values for one entry are separate records, joined by “and”; a condition that tells them apart may be missing. Equal entries are not always repeated. Among all 16,000 compounds or so, about 40 (0.2%) were called active. Inconclusive results (about 1%) are left out. The call rests on the fitted dose curve; in most records, active means well fitted activation curve with a large enough effect; inconclusive means small, poorly fitted or top-dose-only effect, or another doubt; inactive means no such curve, though single readings can be large or run the other way. Some of the results follow.

target: Rap guanine nucleotide exchange factor 4 (Homo sapiens) (UniProt Q8WZA2); assay: Validation qHTS for agonist of cAMP-regulated guanine nucleotide exchange factor 4 (EPAC2); details: EPAC2 Rap1B BODIPY-GDP exchange, fluorescence; activation: active compounds read high;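 further: exchange makes BODIPY-GDP fluorescence drop when released from Rap1B; series mostly up to about 150 µM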
Sequence of UniProt Q8WZA2 (Q8WZA2 whole entry, looked up): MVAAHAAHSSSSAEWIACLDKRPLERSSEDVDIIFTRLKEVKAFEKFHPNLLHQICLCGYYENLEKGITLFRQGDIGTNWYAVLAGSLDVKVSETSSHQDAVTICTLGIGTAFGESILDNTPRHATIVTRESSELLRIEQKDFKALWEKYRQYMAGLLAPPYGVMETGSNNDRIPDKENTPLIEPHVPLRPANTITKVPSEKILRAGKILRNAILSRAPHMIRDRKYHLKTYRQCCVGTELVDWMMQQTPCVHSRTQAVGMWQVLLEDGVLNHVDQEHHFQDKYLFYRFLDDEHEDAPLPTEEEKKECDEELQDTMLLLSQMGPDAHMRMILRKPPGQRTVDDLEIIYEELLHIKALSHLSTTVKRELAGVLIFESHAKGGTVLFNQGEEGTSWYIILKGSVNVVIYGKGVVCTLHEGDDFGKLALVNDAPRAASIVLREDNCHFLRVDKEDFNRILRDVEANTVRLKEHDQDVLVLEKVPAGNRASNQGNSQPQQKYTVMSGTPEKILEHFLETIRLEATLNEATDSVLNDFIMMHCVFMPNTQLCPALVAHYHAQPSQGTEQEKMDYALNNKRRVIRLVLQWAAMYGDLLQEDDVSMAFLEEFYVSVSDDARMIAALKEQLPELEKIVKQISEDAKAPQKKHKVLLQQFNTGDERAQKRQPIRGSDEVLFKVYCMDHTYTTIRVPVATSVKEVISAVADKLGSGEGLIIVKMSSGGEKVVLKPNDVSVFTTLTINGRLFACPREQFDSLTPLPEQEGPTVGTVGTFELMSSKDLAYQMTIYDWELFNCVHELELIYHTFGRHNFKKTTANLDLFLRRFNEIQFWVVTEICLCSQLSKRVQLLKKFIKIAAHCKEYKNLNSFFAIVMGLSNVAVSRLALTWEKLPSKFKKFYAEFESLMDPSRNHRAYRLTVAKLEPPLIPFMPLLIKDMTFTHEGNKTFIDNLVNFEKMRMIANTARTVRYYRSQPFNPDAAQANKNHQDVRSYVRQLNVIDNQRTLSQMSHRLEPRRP
Summary of the method: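 Signal normalized against 6.5 mM cAMP as agonist control. Mix of EPAC2 (100 nM), RAP1B-BODIPY-GDP (250 nM) and GDP (50 uM) was read kinetically at 480/540 nm, every 5 min over 30 min, after 5 min room-temperature incubation with compound.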
On the % scale 0 is the no-effect control and ±100 the full control effect.

activation, inactive:
CCOC(=O)/C=C1\CN(Cc2ccc(OC)cc2)S(=O)(=O)c2ccc(C(F)(F)F)cc21 -22%, CN(C)Cc1ccccc1-c1nc(NC2CCNCC2)c2ccccc2n1 -5.63%, N[C@H](CO)Cc1cnc[nH]1 -3.13%, Cc1ccc(CN2[C@@H](c3ccccc3)COCCS2(=O)=O)cc1 -17.7%, COc1cc2c3cc1Oc1cc(ccc1O)CC1c4c(cc(OC)c(O)c4Oc4ccc(cc4)CC3N(C)CC2)CC[N+]1(C)C (configuration not stated) -12.4%, Cn1cc(-c2nc3cncnc3n(Cc3ccccc3Cl)c2=O)c2ccccc21 5.05%, CC1(C)SC2C(NC(=O)C(NC(=O)N3CCNC3=O)c3ccccc3)C(=O)N2C1C(=O)O (configuration not stated) 1.7%, c1ccc2c(c1)CCCN2 -8.29%, CCN(CC)CCOc1ccc(C(O)(Cc2ccc(Cl)cc2)c2ccc(C)cc2)cc1 (configuration not stated) -21.4%, COc1ccc(-c2coc3c(O)c(OC)ccc3c2=O)cc1 -5.62%, Cc1cnc(-n2ncc(C(=O)N(CCO)C(C)C)c2-c2cccs2)nc1-c1ccc(F)cc1 -8.21%, CCCCN(CCC#N)c1ccc(/C=C/c2ccnc3ccccc23)cc1 6.62%, COc1ccc(CNc2ccnc(-c3ccccc3Cl)n2)c(OC)c1 -15.3%, Nc1ncnc2c1ncn2[C@@H]1O[C@H](C(=O)NC2CC2)[C@@H](O)[C@H]1O -8.59%, COc1ccc(C(=O)N2CCC3(CCCN(C)C3)CC2)cc1 -5.53%, COc1ncc2nc(-c3cccs3)c(=O)n(-c3ccccc3)c2n1 3.75%, COc1cc(C2Oc3cc(C4Oc5cc(O)cc(O)c5C(=O)C4O)ccc3OC2CO)ccc1O (configuration not stated) 0.204%, CCCCCCCCCCCCCCCCCC(=O)NCC(COP(=O)([O-])OCC[N+](C)(C)C)OCC (configuration not stated) -33.6%, CC(C)CNC(=O)c1cn(C2CCN(Cc3nc4ccccc4s3)CC2)nn1 -4.68%, CCC(=O)O[C@@H]1CC(=O)O[C@H](C)C/C=C/C=C/[C@@H](O)[C@H](C)C[C@H](CC=O)[C@H](OC2O[C@H](C)[C@@H](O[C@H]3C[C@@](C)(O)[C@@H](OC(=O)CC)[C@H](C)O3)[C@H](N(C)C)[C@H]2O)[C@H]1OC (some centres not stated) -11%, COc1ccc(-n2c(=O)c(-c3cccs3)nc3cnc(N4CCOCC4)nc32)cc1 3.93%, O=C1[C@H]2[C@H](C=CC[C@H]2C(=O)N2CCN(c3ccccc3)CC2)CCN1Cc1ccc(Cl)c(Cl)c1 -0.791%, CCC1CN(CC(=O)NC(C)CO)Cc2cc(OC)ccc2O1 (configuration not stated) -13.9%, NCCCCCCNS(=O)(=O)c1cccc2c(Cl)cccc12 -17% and 0.53% and 2.82%, CCC(C)(C)OC(=O)N[C@@H](Cc1c[nH]c2ccccc12)C(=O)N[C@@H](CCSC)C(=O)N[C@@H](CC(=O)O)C(=O)N[C@@H](Cc1ccccc1)C(N)=O 79.6%, Cc1cc2ccccc2c[n+]1C1CCCCC1 -19.4%, Cc1c(C2CCN(CCc3ccccc3)CC2)noc1-c1ccc(Cl)cc1 -6.63% and -12.9%, COc1ccc2cc1Oc1ccc(cc1)CC1c3cc(c(OC)cc3CCN1C)Oc1c(OC)c(OC)cc3c1C(C2)N(C)CC3 (configuration not stated) -8.97%, CN1C2CCC1CC(OC(c1ccccc1)c1ccccc1)C2 (configuration not stated) -20.7%, Cc1cccc(C(=O)NCc2nc(-c3ccccc3NC(=O)C3CCCO3)oc2C)c1 (configuration not stated) -3.17%, Cc1cnc(-n2ncc(C(=O)N(C)CC3CCCN(C)C3)c2C2CC2)nc1-c1cccs1 (configuration not stated) 2.98%, CC(=O)N1CCC2(CCCN(C(=O)Nc3cccc(C#N)c3)C2)CC1 -3.71%, COc1ccccc1-c1cncnc1NCCN1CCOCC1 -18.9%, CC(=O)Oc1c(C)c(C)c2c(c1C)CC[C@@](C)(CCC[C@H](C)CCC[C@H](C)CCCC(C)C)O2 -47.1% and -2.92% and -29%, COc1ccccc1CCn1c(=O)c(CCc2ccccc2)nc2cncnc21 4.36%, c1cncc(-c2cc(NCc3cccs3)ncn2)c1 -8.01%, COc1cc(C)c(CN2CCc3nnc(C(C)NC(=O)c4cccnc4)n3CC2)cc1C (configuration not stated) -6.85%, C[C@]12CC[C@@H]3c4ccc(O)cc4CC[C@H]3[C@@H]1CC[C@@H]2O -3.98% [middle of 4 runs], Cc1noc(C)c1-c1cncnc1NCc1ccccc1 -14.7%, CCCC(CCC)C(N)=O -9.29%, COc1cc(=O)n2c(c1C(=O)N(C)Cc1nonc1C)CCN(Cc1ccccc1F)CC2 7.64%, C=C[C@@H]1c2ccccc2N(S(=O)(=O)c2ccc(C)cc2)[C@H](c2ccccc2)C1(C#N)C#N -17.4%, CCN(CC)C(=O)c1cccc(C)c1 -4.06%, O=C(c1cnccn1)N1CCC2(CC1)CN(C(c1ccccc1)c1ccccc1)C2 3.63%, Cc1cc(Cl)ccc1OCC(=O)NCC1Cc2cc(-c3cnccn3)ccc2O1 (configuration not stated) -4.92%, CC(C)(C)NCC(O)COc1ccc(NC(=O)NC2CCCCC2)cc1 (configuration not stated) 8.81%, CCN(CC)C(=O)c1cccnc1 -2.53%, O=c1[nH]c(=S)[nH]c(-c2ccccc2)c1Cc1c(O)ccc2ccccc12 -29.7%, c1cncc(-c2cncnc2-n2ccnc2)c1 -13.5%, COc1cccc(Cn2c(=O)c(-c3ccccc3)nc3cnc(N4CCNCC4)nc32)c1 -23.3%, CCCN(CCC)S(=O)(=O)c1ccc(C(=O)O)cc1 -18.9% and 8.22%, CC1CC2C3CCC4=CC(=O)C=C[C@]4(C)[C@@]3(F)[C@@H](O)C[C@]2(C)[C@@]1(O)C(=O)CO (some centres not stated) -17.5%
